Numbering of substitutions follows the chain as printed.
System: HBEGF locus
Format: cell-based, human
Details: high-throughput screen of dXR repression of the HBEGF gene; change in abundance of each domain in the library before and after diphtheria toxin selection

B1: DOMAIN_5943 (protein, listed as Mus musculus)
chain: SLGPLSFKDVAVAFSQEEWQQLDPEERTTYRDVMLETYSNLVSVGYDIIKPDVIIKLEQGEEPWIVEGAFSPQSYPDEIRH
In the case of B1, the “Log2 (fold change)” value is reported as 2.501.

B2: DOMAIN_6248 (protein, listed as Saimiri boliviensis)
chain: SVTFEDVAVNFSLEEWNLLNEAQRCLYRDVMLETLTLISSLGAPPHTLFPARACGPEAPPSRHCPRPSLCLSLSPLHPTGV
With B2 the “Log2 (fold change)” value was 2.4415.

B3: DOMAIN_5989 (protein, listed as Mus musculus)
chain: SKAPVTFGDLAIYFSQEEWEWLSPMQKDLYEDVMLENYHNLVSVGLACRRPNIIALLEKGKAPWVIEPSRRRWGPESGSKY
B3 was tested, and the “Log2 (fold change)” value was 3.6632.

B4: DOMAIN_5994 (protein, listed as Pongo sp.)
chain: RQEPVTFEDVAVYFTQNEWASLDSVQRALYREVMLENYANVASLAFPFTTPVLVSQLEQGELPWGLDPWEPMGREALRGIC
B4 was tested, and the “Log2 (fold change)” value was 2.9214.

B5: DOMAIN_6555 (protein, listed as Paroedura picta)
chain: AQAGVSFEEVAVHFSPGEWSLLQPAQRALYKEVMLENFGHVASLGPPGATPDLIAWLQEGLFLLGGDEEAGSAGDAWRSAT
In the case of B5, the “Log2 (fold change)” value is reported as 3.534.

B6: DOMAIN_6539 (protein, listed as Paroedura picta)
chain: AQRPVTFEDVAVYFSEAQGTLLDPDQKALYREVMMENYENVASLGSLTPKPELIIRLERGEEPWVSDPGDAPVSGDFRKSH
With B6 the “Log2 (fold change)” value was 3.2371.

B7: DOMAIN_6063 (protein, listed as Homo sapiens)
chain: KPGTVSFADVAVYFSPEEWGCLRPAQRALYRDVMQETYGHLGALGFPGPKPALISWMEQESEAWSPAAQDPEKGERLGGAR
For B7, the “Log2 (fold change)” value was 3.5653.

B8: DOMAIN_6293 (protein, listed as Rattus norvegicus)
chain: B7 chain with G3E, T4L, E17Q, D32E, Q35R, H40L, K73E, R76S, R81P
For B8, the “Log2 (fold change)” value was 2.6707.

B9: DOMAIN_6053 (protein, listed as Pongo sp.)
chain: MVTFEDVAVHFTKTEWTGLSPAQRALYRSVMLENFGNLTALGYPVPKPALISLLEGGDMAWGLEAQDDPPAETTKNVRKDV
With B9 the “Log2 (fold change)” value was 3.2566.

B10: DOMAIN_6501 (protein, listed as Paroedura picta)
chain: AQVAFEDVAVYFTEEQWALLDHSQRALYRDVMQENYETVASLGLPIPGPDSISRLQQREESRIEAQPVLEGNDVSSDDDLG
B10 was tested, and the “Log2 (fold change)” value was 3.4172.

B11: DOMAIN_7328 (protein, listed as Terrapene carolina)
chain: MPVTFEEVAVYFTQGQGALLDPAQRALYRDVMQENYETVTSLGFPIPKPELIARLERGEEPWVPDLQACKERRLPRCTRTG
With B11 the “Log2 (fold change)” value was 3.1808.

B12: DOMAIN_6078 (protein, listed as Homo sapiens)
chain: QAEVTFEDVAVYLSREEWGRLGPAQRGLYRDVMLETYGNLVSLGVGPAGPKPGVISQLERGDEPWVLDVQGTSGKEHLRVN
In the case of B12, the “Log2 (fold change)” value is reported as 2.6246.

B13: DOMAIN_5914 (protein, listed as Homo sapiens)
chain: ALRSVMFSDVSIDFSPEEWEYLDLEQKDLYRDVMLENYSNLVSLGCFISKPDVISSLEQGKEPWKVVRKGRRQYPDLETKY
In the case of B13, the “Log2 (fold change)” value is reported as 2.5527.

B14: DOMAIN_4968 (protein, listed as Callithrix sp.)
chain: RALTPVSMTAEAKCTGFTQGSVTFEDVAIYFSQEEWGLLDEAQRLLYRDVMLENFALLTSLVCWHGMEDEETPEQSVSVNG
With B14 the “Log2 (fold change)” value was 3.0315.

B15: DOMAIN_6038 (protein, listed as Homo sapiens)
chain: SLGSELFRDVAIVFSQEEWQWLAPAQRDLYRDVMLETYSNLVSLGLAVSKPDVISFLEQGKEPWMVERVVSGGLCPVLESR
With B15 the “Log2 (fold change)” value was 3.3315.

B16: DOMAIN_5463 (protein, listed as Aotus trivirgatus)
chain: MAAAALRLPAQGTVTFEDVAVKFSQEEWSLLSEAQRCLYHDVMLENLALISSLGCWYGANDETPSKQTLSIQQQSPLRSHW
In the case of B16, the “Log2 (fold change)” value is reported as 3.2102.

B17: DOMAIN_5968 (protein, listed as Bos taurus)
chain: QAEVTFEDVAVFLSQEEWGLLGPAQKGLYREVMLETYRNLVSLGAGLAGPKPEVIAQLEQGDELWVLDMHGAEQPSVDGSA
In the case of B17, the “Log2 (fold change)” value is reported as 3.2856.

B18: DOMAIN_5921 (protein, listed as Homo sapiens)
chain: SWGPLSFMDVFVDFTWEEWQLLDPAQKCLYRSVMLENYSNLVSLGYQHTKPDIIFKLEQGEELCMVQAQVPNQTCPNTVWK
In the case of B18, the “Log2 (fold change)” value is reported as 2.4715.

B19: DOMAIN_6970 (protein, listed as Phasianus colchicus)
chain: CQEPVSFAQVAVYFSREEWALLDPAQRALYRDVMLETYQCVASLAPLPAHKPMVISLLEGGEDPWIPDVRSPEAVPGDLSP
For B19, the “Log2 (fold change)” value was 3.343.

B20: DOMAIN_7000 (protein, listed as Phasianus colchicus)
chain: B19 chain with H50P, V54L, I66V, R70C
With B20 the “Log2 (fold change)” value was 2.8279.

B21: DOMAIN_6169 (protein, listed as Homo sapiens)
chain: SQGLVTFGDVAVDFSQEEWEWLNPIQRNLYRKVMLENYRNLAWLGLCVSKPDVISSLEQGKEPWTVKRKMTRAWCPDLKAV
With B21 the “Log2 (fold change)” value was 3.3909.

B22: DOMAIN_6599 (protein, listed as Terrapene carolina)
chain: FQMPVTFEEVAVYFTQGQGALLDPAQRALYRDVMQDNYEMVTSLGFPIPKPELIARLERGEEPWVPDLQACEERRLPRCTR
B22 was tested, and the “Log2 (fold change)” value was 3.3653.

B23: DOMAIN_6936 (protein, listed as Callipepla squamata)
chain: EPVSFEEVAVYFSREEWALLDPAQRALYWDVMLETYECVASLAPLPGPKPMVISLLEEGEEPWIPDVGSPEAVAGDVSPGE
With B23 the “Log2 (fold change)” value was 3.5294.

B24: DOMAIN_6382 (protein, listed as Gopherus agassizii)
chain: LVPVTFEDVAVYFSREEWGLLDDMQRTFYRDVMKENYQTVVSLPGSSIPKPDVISQMERGEEPWVPDLQKLGPHQTPENPL
With B24 the “Log2 (fold change)” value was 3.2875.

B25: DOMAIN_7123 (protein)
chain: DRVKFTFSDVAVYFSEEEWQLLEEQQKELYRNVMKENYTTLTSLGYTTVKPDVISKIEQGKQPSVSSPSGSKGRRAVGRPT
modifications: Microcaecilia unicolor
With B25 the “Log2 (fold change)” value was 2.9074.

B26: DOMAIN_6577 (protein, listed as Terrapene carolina)
chain: FQGLVTFEEVAVYFTREEGALLDPTQRALYRDVMQENYETVVLLGKESFSKPDVISQLERGEEPWVPDLQGSEKERPEENF
B26 was tested, and the “Log2 (fold change)” value was 3.3168.

B27: DOMAIN_7365 (protein)
chain: QVPVTFEDIAVSFSQEEWKYLDEGQKNLYWEVMKENYETLISLADSEVEQEDKRAKNREECPMLWGLIPRQSRKNSEKVSW
modifications: Microcaecilia unicolor
For B27, the “Log2 (fold change)” value was 2.597.

B28: DOMAIN_6249 (protein, listed as Saimiri boliviensis)
chain: VQEPVTFKDVAVDFTQEEWGQLDLVQRTLYRDVMLETYGHLLSVGNQIAKPEVISLLEQGEEPWSLEQTCPQRACPEWMRN
For B28, the “Log2 (fold change)” value was 3.5469.

B29: DOMAIN_6172 (protein, listed as Homo sapiens)
chain: SKAPITFGDLAIYFSQEEWEWLSPIQKDLYEDVMLENYRNLVSLGLSFRRPNVITLLEKGKAPWMVEPVRRRRAPELVTVA
In the case of B29, the “Log2 (fold change)” value is reported as 3.883.

B30: DOMAIN_6354 (protein, listed as Terrapene carolina)
chain: PSGLVTFEEVAVYFTREEGALLDPTQRALYRDVMQENYETVVLLGFPVSKPDVISQLERGEEPWVPDLQGSEKEVLPRAAC
With B30 the “Log2 (fold change)” value was 2.4812.

B31: DOMAIN_6595 (protein, listed as Terrapene carolina)
chain: B30 chain with P1A, S2Q, L4P, R59Q, V65I
For B31, the “Log2 (fold change)” value was 2.2407.

B32: DOMAIN_6482 (protein, listed as Paroedura picta)
chain: FSLEDVSVSFSPAEWALLDPAQRALWREVMRENAENVAFLARSIGETLVEANNDPVSEGRLERSSGGAEEQISFPNGLAKR
In the case of B32, the “Log2 (fold change)” value is reported as 3.3106.

B33: DOMAIN_7480 (protein, listed as Gopherus agassizii)
chain: MPVTFEDVAVYFTQGQGALLDPTQRALYRDVMQENYETVTSLGKSVKGFPLAKPDLITRLERGEEPWVSDLQATGDERMSE
B33 was tested, and the “Log2 (fold change)” value was 3.1707.

B34: DOMAIN_7510 (protein, listed as Gopherus agassizii)
chain: LEGLVTFEEVAVYFTESEWSLLDPAQRALYRDVMEENYENVTSLGFPVSKPDVISWLERGEDPWVPDLQDPEKRETLREAC
For B34, the “Log2 (fold change)” value was 3.0452.

B35: DOMAIN_5290 (protein, listed as Aotus trivirgatus)
chain: LAPEDHGSSYEGSVSFRDVAIDFSREEWRHLDLSQRNLYRDVMLETYSHLLSVGYQVPEAEVVMLEQGNEPWSLQGERPHQ
B35 was tested, and the “Log2 (fold change)” value was 3.0993.

B36: DOMAIN_6134 (protein, listed as Homo sapiens)
chain: ARGKSKSKAPITFGDLAIYFSQEEWEWLSPIQKDLYEDVMLENYRNLVSLGLSFRRPNVITLLEKGKAPWMVEPVRRRRAP
In the case of B36, the “Log2 (fold change)” value is reported as 2.7081.

B37: DOMAIN_6458 (protein, listed as Gopherus agassizii)
chain: FQIPVTFEEVAVYFTQGQGALLDPAQRALYRDVMQENYETVTSLGFPIPKPDLIARLERGEEPWVLDLQASDESVSLRGTC
With B37 the “Log2 (fold change)” value was 2.8973.

B38: DOMAIN_6866 (protein, listed as Alligator mississippiensis)
chain: AQGPVTFEDVAVYFSAEEWQELAGWQRELYRDVMMDTYELVASLGPAGLKPEVVSKLERGEEPHQPARSRESPRAPLPVLL
For B38, the “Log2 (fold change)” value was 3.5825.

From patent US12551573B2, “Compositions and methods for the targeting of PCSK9” (Scribe Therapeutics Inc., priority 2022, dated 2026)
